Out of some 48,000 compounds screened, about 550 (1.1%) were called active. About 4% were inconclusive and are not listed. Cut-off read from the data, not from the text of the source: active = potency below about 15 µM; inconclusive = mostly about 16 µM to 33 µM; inactive = weaker than that. This is one part of the list.
Potency is the fitted concentration of half-maximal effect.

UniProt P04062, sequence (P04062 whole entry, looked up): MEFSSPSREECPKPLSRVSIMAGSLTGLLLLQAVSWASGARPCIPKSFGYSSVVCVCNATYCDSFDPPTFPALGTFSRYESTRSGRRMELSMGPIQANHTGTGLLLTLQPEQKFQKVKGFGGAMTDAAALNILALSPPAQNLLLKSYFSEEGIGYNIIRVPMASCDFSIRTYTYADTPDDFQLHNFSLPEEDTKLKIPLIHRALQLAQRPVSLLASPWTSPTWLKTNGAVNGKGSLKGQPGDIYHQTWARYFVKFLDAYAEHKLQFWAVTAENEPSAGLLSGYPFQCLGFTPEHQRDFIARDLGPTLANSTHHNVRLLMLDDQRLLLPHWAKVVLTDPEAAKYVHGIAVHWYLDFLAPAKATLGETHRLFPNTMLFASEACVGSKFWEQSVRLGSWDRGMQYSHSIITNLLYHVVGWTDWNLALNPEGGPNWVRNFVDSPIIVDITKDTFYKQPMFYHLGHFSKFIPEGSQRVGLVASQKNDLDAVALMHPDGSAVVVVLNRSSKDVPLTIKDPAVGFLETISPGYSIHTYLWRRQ

In the assay the target is Lysosomal acid glucosylceramidase (Homo sapiens) (UniProt P04062). As to the kind of experiment: Glucocerebrosidase.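 Note: the screen sought inhibitors.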 Conditions: purified enzyme, resorufin glucoside fluorescence (screen aimed at inhibitors), 20 min; series mostly up to 77 µM. A digest of the protocol:
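Compounds titrated against 0.2 nM normal enzyme, 30 uM resorufin beta-D-glucopyranoside substrate, citrate/phosphate buffer with taurocholate and tween-20, pH 5.9. Reaction ran 20 min at room temperature; fluorescence (Ex 548/Em 600) gave AC50.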
For the molecule `CCOC(=O)C(NC(=O)CC)(Nc1sc2c(c1C(=O)OC)CCN(C)C2)C(F)(F)F` (stereo unspecified), the Potency was inactive: > 76.9 µM.
The value for `COc1ccc(N2C(=O)C3CCCN3C2c2ccc(F)cc2)cc1Cl` (stereo unspecified) was inactive: > 76.9 µM.
For `COC(=O)c1sc(NC(=O)CSc2nnc(C(C)C)n2C)nc1C`, the Potency was inactive: > 76.9 µM.
For `CC1=[N+]([O-])C(C)(C)CC(C)(C)c2ccccc21`, the Potency is inactive: > 76.9 µM.
Take `CC(C)(C)c1ccccc1OCC(=O)Nc1ncn[nH]1`: the Potency is inactive: > 76.9 µM.
To `Cn1c(SCC(=O)c2cccs2)nnc1-c1ccco1` belongs inactive: > 76.9 µM.
For the molecule `Cc1cccn2c(=O)c(/C=N/O)c(N3CCCCC3)nc12`, the Potency is inactive: > 76.9 µM.
The value for `CCOC(=O)c1ccc(NC(=O)CC2SCCNC2=O)cc1` (stereo unspecified) was inactive: > 76.9 µM.
Turning to `Cc1cc(NC(=O)COc2ccc3oc4ccccc4c3c2)no1`, the Potency was inactive: > 76.9 µM.
To `O=C(Cc1c(O)c2ccccc2[nH]c1=O)NCc1ccc(F)cc1` belongs inactive: > 76.9 µM; to `CCOC(=O)N1CCC(NC(=O)C2CCN(C(=O)N3CCOc4ccccc43)CC2)CC1`, inactive: > 76.9 µM.
With `CCC(C)(C)NC(=O)C(c1cccn1C)N(C(=O)Cn1nnc2ccccc21)c1ccc(F)cc1` (stereo unspecified), the Potency was inactive: > 76.9 µM.
To `COc1ccc(OCC(=O)Nc2ccc(S(=O)(=O)N3CCOCC3)cc2)cc1` belongs inactive: > 76.9 µM; to `O=C(Nc1ccc2c(c1)OCCO2)c1ccc(S(=O)(=O)N2CCCCC2)cc1`, inactive: > 76.9 µM.
The value for `CCOC(=O)c1[nH]c2ccc(C)cc2c1NC(=O)CN1CCCCC1` was inactive: > 76.9 µM; that for `Nc1nnc(SCC(=O)Nc2ccc(F)c(Cl)c2)n1-c1ccccc1` was inactive: > 76.9 µM.
Regarding `O=C1OCCC1Sc1nnc(-c2ccccc2)o1` (stereo unspecified), the Potency was inactive: > 76.9 µM.
To `Cc1cc(C)nc(SCC(=O)Nc2ncc3c(n2)CC(C)(C)CC3=O)n1` belongs inactive: > 76.9 µM; to `COc1cc2[nH]c(=S)n(CCN3CCCCC3C)c(=O)c2cc1OC` (stereo unspecified), inactive: > 76.9 µM.
To `COC(=O)CN(c1ccc(OC)c(OC)c1)S(C)(=O)=O` belongs inactive: > 76.9 µM; to `COc1cccc(OC)c1Oc1ccc(C(F)(F)F)cn1`, inactive: > 76.9 µM.
Turning to `COCCn1c(=O)[nH]c2cc(C(=O)NCCCN3CCN(c4ccc(F)cc4)CC3)ccc2c1=O`, the Potency was inactive: > 76.9 µM.
For the molecule `CCOC(=O)c1ccc(NC(=O)C2CCN(S(=O)(=O)CC)CC2)cc1`, the Potency result was “inactive”.
To `COc1cc(OC)cc(-c2nnc(SCC(=O)N3c4ccccc4Sc4ccccc43)o2)c1` belongs inactive: > 76.9 µM.
With `Cc1ccc2cc3cc(C(=O)NCc4ccc5c(c4)OCO5)oc3nc2c1`, the Potency is inactive: > 76.9 µM.
To `CCOC(=O)CNC(=O)c1cn(CC)c(=O)c2cc(OC)c(OC)cc12` belongs inactive: > 76.9 µM; to `COC(=O)c1c(NS(C)(=O)=O)sc2c1CCCC2`, inactive: > 76.9 µM; to `O=C(Cn1nnc(-c2ccccc2)n1)OCc1csc(-c2ccccc2)n1`, inactive: > 76.9 µM.
For `C=C(c1cccc2ccccc12)P(=O)(O)O`, the Potency is inactive: > 76.9 µM.
The value for `O=C(CSc1nnc2scc(-c3ccccc3)n12)NCc1ccc2c(c1)OCO2` was inactive: > 76.9 µM; that for `CCOc1cccc(C(=O)Nc2ccc(N3CCN(S(C)(=O)=O)CC3)cc2)c1` was inactive: > 76.9 µM; that for `COC(=O)C1(S(=O)(=O)c2cc(Br)cc3c2N(C(C)=O)CC3)CC1` was inactive: > 76.9 µM.
To `CCOC(=O)C1CCN(C/C=C/c2ccccc2OC)CC1` belongs inactive: > 76.9 µM; to `O=C(Nc1ccccc1Cl)c1cccs1`, inactive: > 76.9 µM.
In the case of `Cc1ccccc1C(=O)Nc1ccc2c(c1)OCO2`, the Potency was inactive: > 76.9 µM.
The value for `COc1ccc(NC(=O)NCCCN2CCCCC2C)cc1` (stereo unspecified) was inactive: > 76.9 µM; that for `O=C(NC1CCCC1)C(c1ccccc1)N(C(=O)c1ccno1)c1cccnc1` (stereo unspecified) was inactive: > 76.9 µM.
The value for `O=C(CSc1nc(Nc2ccccc2)nc(N2CCOCC2)n1)N1CCCC1` was inactive: > 76.9 µM; that for `COC(=O)c1cn(NC(=O)C2CCCCC2)c(=O)c2ccccc12` was inactive: > 76.9 µM; that for `O=S(=O)(Cc1ccc(Cl)cc1)N1CCN(Cc2ccccc2)CC1` was inactive: > 76.9 µM.
The value for `c1ccc(Cn2c(NCc3ccco3)nc3ccccc32)cc1` was inactive: > 76.9 µM; that for `CCCc1cn(S(=O)(=O)c2ccc(OC)cc2OC)nc1N` was inactive: > 76.9 µM; that for `CCOc1cc(NS(C)(=O)=O)c(OCC)cc1NC(=O)c1cccs1` was inactive: > 76.9 µM.
Turning to `N#Cc1c(F)cccc1N1CCOCC1`, the Potency is inactive: > 76.9 µM.
The value for `Cc1nn(-c2ccccc2)c2[nH]c(=O)c(CNCc3ccc4c(c3)OCO4)cc12` was inactive: > 76.9 µM; that for `Cn1c(=O)n(C/C=C/c2ccccc2)c(=O)c2c1nc1n2CCCN1c1ccc(F)cc1` was inactive: > 76.9 µM.
As for `CCCCN(C(=O)Cn1nnc2ccccc21)C(C(=O)NCCOC)c1ccc(OC)cc1OC` (stereo unspecified), the Potency is inactive: > 76.9 µM.
To `Cc1ccc2[nH]c(=O)c(C(c3nnnn3CC3CCCO3)N3CCc4ccccc4C3)cc2c1` (stereo unspecified) belongs inactive: > 76.9 µM; to `CCOC(=O)N1CCN(C(=O)c2ccc(Cl)c(S(=O)(=O)Nc3ccccc3)c2)CC1`, inactive: > 76.9 µM.
To `CC1=CC(C)(C)N2C(=O)C3(C(C#N)=C(N)OC4=C3C(=O)CCC4)c3c(C)c(C)cc1c32` (stereo unspecified) belongs inactive: > 76.9 µM; to `COC(=O)[C@H](CCSC)NC(=O)Nc1ccc(OC)c(Cl)c1`, inactive: > 76.9 µM.
For the molecule `COC(=O)C1(CCSC)NC(c2ccco2)C2C(=O)N(C)C(=O)C21` (stereo unspecified), the Potency was inactive: > 76.9 µM.
As for `C/C(=N\O)C(=O)NCc1ccccn1`, the Potency is inactive: > 76.9 µM.
Consider `COC(=O)C(Cc1ccccc1)NC(=O)CSc1nc(N)cc(=O)[nH]1` (stereo unspecified), for which the Potency was inactive: > 76.9 µM.
To `O=C(O)c1cc(-c2ccccc2)c(N2CCOCC2)s1` belongs inactive: > 76.9 µM; to `COC(=O)c1ccc(CNC(=O)CSc2nnc(COc3ccccc3)n2C)o1`, inactive: > 76.9 µM; to `O=C(NCc1cccnc1)C1CCN(S(=O)(=O)N2CCOCC2)CC1`, inactive: > 76.9 µM.
To `COc1ccccc1NC(=O)C(O)C(O)C(=O)Nc1ccccc1OC` (stereo unspecified) belongs inactive: > 76.9 µM; to `O=C(NCc1ccncc1)c1cccc(F)c1`, inactive: > 76.9 µM.
To `CCCCN(CCCC)C(=O)CN(C)S(=O)(=O)c1ccc2c(c1)n(C)c(=O)c(=O)n2C` belongs inactive: > 76.9 µM; to `CC(C)CNC(=O)c1cc(-c2ccco2)on1`, inactive: > 76.9 µM; to `Cc1onc(-c2ccccc2Cl)c1C(=O)Nc1ccc(-c2cn3cccnc3n2)cc1`, “inactive”.
As for `CCOC(=O)CC(=O)CSc1nc2ccccc2c(=O)n1-c1ccc(C(=O)N2CCOCC2)cc1`, the Potency is inactive: > 76.9 µM.
In the case of `CC1CN(C(=O)c2cc3cc(Cl)cc(Cl)c3oc2=O)CC(C)O1` (stereo unspecified), the Potency is inactive: > 76.9 µM.
As for `COc1ccc(-c2nc3ncccn3c2Nc2ccc3c(c2)OCCO3)cc1`, the Potency is inactive: > 76.9 µM.
Regarding `CCOc1ccc(-c2[nH]ncc2Oc2cccc(OC)c2)c(O)c1`, the Potency is inactive: > 76.9 µM.
To `CC(=NCC1CCCO1)c1c(O)[nH]c(=O)[nH]c1=O` (stereo unspecified) belongs inactive: > 76.9 µM.
For `O=C(O)CCc1ccc(-c2ccc(F)cc2)n1CCC(=O)O`, the Potency is inactive: > 76.9 µM.
In the case of `COc1ccc(C2NCCO2)cc1OC` (stereo unspecified), the Potency is inactive: > 76.9 µM.
Turning to `COc1ccc(Cl)cc1NC(=O)Cn1cccc1`, the Potency result is “inactive”.
For `CCSc1nnc(NC(=O)CSc2nc3c(c(=O)n2-c2ccccc2OC)SCC3)s1`, the Potency is inactive: > 76.9 µM.
On to `COC(=O)c1ccccc1S(=O)(=O)N(CCCO)Cc1cc2c(C)ccc(C)c2[nH]c1=O`, for which the Potency is inactive: > 76.9 µM.
Turning to `O=C(O)C1CSC2c3ccccc3C(=O)N12` (stereo unspecified), the Potency was inactive: > 76.9 µM.
In the case of `Cc1cc(C)nc(NS(=O)(=O)c2ccc(-n3cccc3)cc2)n1`, the Potency was inactive: > 76.9 µM.
To `O=c1[nH]c(NCc2ccccc2)nc2c1CCC2` belongs inactive: > 76.9 µM; to `O=S(=O)(c1cc(Cl)ccc1Br)N1CCCCC1`, inactive: > 76.9 µM.
The value for `CCOC(=O)N1CCC(NC(=O)Cn2cc3c(n2)CCC(C)C3)CC1` (stereo unspecified) was inactive: > 76.9 µM; that for `Cc1c(NC(=O)Nc2ccc3c(c2)OCO3)c(=O)n(-c2ccccc2)n1C` was inactive: > 76.9 µM.
For `c1ccc(CCCc2nc(-c3ccccn3)no2)cc1`, the Potency was inactive: > 76.9 µM.
Consider `Nc1ccc2ncccc2c1`, for which the Potency was inactive: > 76.9 µM.
The value for `O=C(NCc1cccc(Cl)c1)c1cnccn1` was inactive: > 76.9 µM; that for `O=C(CSc1nc2c(sc3ccccc32)c(=O)n1CCO)NCC1CCCO1` (stereo unspecified) was inactive: > 76.9 µM; that for `Cc1ccn(C(=O)c2ccc(NC(=O)C3CCCCC3)cc2)n1` was inactive: > 76.9 µM.
The value for `CC(C)Cn1c(SCC(=O)c2ccc(Cl)s2)nnc1-c1ccco1` was inactive: > 76.9 µM; that for `O=C(c1ccco1)[C@@H]1[C@@H]2C(=O)N(c3ccc(Br)cc3)C(=O)[C@@H]2C2c3ccccc3C=CN21` (stereo partly specified) was inactive: > 76.9 µM; that for `CCC(C)NCC(O)COCc1ccc(Cl)cc1` (stereo unspecified) was inactive: > 76.9 µM.
On to `CC(C)(C)OC(=O)NCCc1nnc(S(=O)(=O)Cc2ccc(Cl)cc2Cl)o1`, for which the Potency was inactive: > 76.9 µM.
`CCCS(=O)(=O)N1CCC(C(=O)NCC2CCCO2)CC1` (stereo unspecified): the Potency is inactive: > 76.9 µM.
The value for `C1CCC2=NCCCN2CC1` was inactive: > 76.9 µM; that for `COc1ccccc1CNC(=O)C1CCN(S(=O)(=O)c2c(C)noc2C)CC1` was inactive: > 76.9 µM; that for `O=c1c2[nH]c3ccccc3c2ncn1Cc1ccccn1` was inactive: > 76.9 µM.

Source of the values: PubChem BioAssay AID360 (National Center for Advancing Translational Sciences (NCATS), 2006).
